{"source": "patent US20240270806A1", "about": "(Chugai, published 2024)", "binders": {"B1": {"name": "Bivalent IL-12 fusion protein FP39 (other)", "heavy": "QVQLVQSGAEVKKPGSSVKVSCKASGGTFSDYYLHWSRQAPGQGLEWMGWIDPENGDTEYAPKFQGRVTITADESTSTAYMELSSLRSEDTAVYYCARNKELRYIDVWGQGTLVTVSSTSGSGRSATPRGASTKGPSVFPLAPCSKSTSGGTAALGCLVKDYFPEPVTVSWNSGALTSGVHTFPAVLQSSGLYSLSSVVTVPSSSLGTQTYICNVNHKPSNTKVDKRVGGGGSGGGGS[human IgG1 Fc with changes cut from this listing]GSGGSGGSGGSGGSGGSIWELKKDVYVVELDWMPDAPGEMVVLTCDTPEEDGITWTLDQSSEVLGSGKTLTIQVKEFGDAGQYTCHKGGEVLSHSLLLLHKKEDGIWSTDILKDQKEPKNKTFLRCEAKNYSGRFTCWWLTTISTDLTFSVKSSRGSSDPQGVTCGAATLSAERVRGDNKEYEYSVECQEDSACPAAEESLPIEVMVDAVHKLKYENYTSSFFIRDIIKPDPPKNLQLKPLKNSRQVEVSWEYPDTWSTPHSYFSLTFCVQVQGKHKEKKDRVFTDKTSATVICRKNASISVRAQDRYYSSSWSEWASVPCSGGGGSGGGGSGGGGSGGGGSNLPVATPDPGMFPCLHHSQNLLRAVSNMLQKARQTLEFYPCTSEEIDHEDITKDKTSTVEACLPLELTKNESCLNSRETSFITNGSCLASRKTSFMMALCLSSIYEDLKMYQVEFKTMNAKLLMDPKRQIFLDQNMLAVIDELMQALNFNSETVPQKSSLEEPDFYKTKIKLCILLHAFRIRAVTIDRVMSYLNAS", "light": "DIVMTQSPLSLPVTPGEPASISCRASQSISINLHWYQQKPGQAPRQLIAFASQSISGVPSRFSGSGSGTDFTLTISSLQPEDFATYYCQQSNSFPLTFGQGTKVEIKRTVAAPSVFIFPPSDEQLKSGTASVVCLLNNFYPREAKVQWKVDNALQSGNSQESVTEQDSKDSTYSLSSTLTLSKADYEKHKVYACEVTHQGLSSPVTKSFNRGEC"}, "B2": {"name": "Bivalent IL-12 fusion protein FP46 (other)", "heavy": "QVQLVQSGAEVKKPGSSVKVSCKASGGTFSDYYLHWSRQAPGQGLEWMGWIDPENGDTEYAPKFQGRVTITADESTSTAYMELSSLRSEDTAVYYCARNKELRYIDVWGQGTLVTVSSTSGSGRSATPRGASTKGPSVFPLAPCSKSTSGGTAALGCLVKDYFPEPVTVSWNSGALTSGVHTFPAVLQSSGLYSLSSVVTVPSSSLGTQTYICNVNHKPSNTKVDKRVGGGGSGGGGS[human IgG1 Fc with changes cut from this listing]GSGGSGGSGGSGGSGGSIWELKKDVYVVELDWPPDAPGEMVVLTCDTPEEDGITWTLDQSSEVLGSGKTLTIQVKEFGDAGQYTCHKGGEVLSHSLLLLHKKEDGIWSTDILKDQKEPKNKTFLRCEAKNYSGRFTCWWLTTISTDLTFSVKSSRGSSDPQGVTCGAATLSAERVRGDNKEYEYSVECQEDSACPAAEESLPIEVMVDAVHKLKYENYTSSFFIRDIIKPDPPKNLQLKPLKNSRQVEVSWEYPDTWSTPHSYFSLTFCVQVQGKHKEKKDRVFTDKTSATVICRKNASISVRAQDRYYSSSWSEWASVPCSGGGGSGGGGSGGGGSGGGGSNLPVATPDPGMFPCLHHSQNLLRAVSNMLQKARQTLEFYPCTSEEIDHEDITKDKTSTVEACLPLELTKNESCLNSRETSFITNGSCLASRKTSFMMALCLSSIYEDLKMYQVEFKTMNAKLLMDPKRQIFLDQNMLAVIDELMQALNFNSETVPQKSSLEEPDFYKTKIKLCILLHAFRIRAVTIDRVMSYLNAS", "light": "B1 light with S30V"}, "B3": {"name": "Bivalent IL-12 fusion protein FP40 (other)", "heavy": "QVQLVQSGAEVKKPGSSVKVSCKASGGTFSDYYLHWSRQAPGQGLEWMGWIDPENGDTEYAPKFQGRVTITADESTSTAYMELSSLRSEDTAVYYCARNKELRYIDVWGQGTLVTVSSTSGSGRSATPRGASTKGPSVFPLAPCSKSTSGGTAALGCLVKDYFPEPVTVSWNSGALTSGVHTFPAVLQSSGLYSLSSVVTVPSSSLGTQTYICNVNHKPSNTKVDKRVGGGGSGGGGS[human IgG1 Fc with changes cut from this listing]GSGGSGGSGGSGGSGGSIWELKKDVYVVELDWQPDAPGEMVVLTCDTPEEDGITWTLDQSSEVLGSGKTLTIQVKEFGDAGQYTCHKGGEVLSHSLLLLHKKEDGIWSTDILKDQKEPKNKTFLRCEAKNYSGRFTCWWLTTISTDLTFSVKSSRGSSDPQGVTCGAATLSAERVRGDNKEYEYSVECQEDSACPAAEESLPIEVMVDAVHKLKYENYTSSFFIRDIIKPDPPKNLQLKPLKNSRQVEVSWEYPDTWSTPHSYFSLTFCVQVQGKHKEKKDRVFTDKTSATVICRKNASISVRAQDRYYSSSWSEWASVPCSGGGGSGGGGSGGGGSGGGGSNLPVATPDPGMFPCLHHSQNLLRAVSNMLQKARQTLEFYPCTSEEIDHEDITKDKTSTVEACLPLELTKNESCLNSRETSFITNGSCLASRKTSFMMALCLSSIYEDLKMYQVEFKTMNAKLLMDPKRQIFLDQNMLAVIDELMQALNFNSETVPQKSSLEEPDFYKTKIKLCILLHAFRIRAVTIDRVMSYLNAS", "light": "B1 light"}, "B4": {"name": "Bivalent IL-12 fusion protein FP30 (other)", "heavy": "QVQLVQSGAEVKKPGSSVKVSCKASGGTFSDYYLHWSRQAPGQGLEWMGWIDPENGDTEYAPKFQGRVTITADESTSTAYMELSSLRSEDTAVYYCARNKELRYIDVWGQGTLVTVSSTSGSGRSATPRGASTKGPSVFPLAPCSKSTSGGTAALGCLVKDYFPEPVTVSWNSGALTSGVHTFPAVLQSSGLYSLSSVVTVPSSSLGTQTYICNVNHKPSNTKVDKRVGGGGSGGGGS[human IgG1 Fc with changes cut from this listing]GSGGSGGSGGSGGSGGSIWELKKDVYVVELDWEPDAPGEMVVLTCDTPEEDGITWTLDQSSEVLGSGKTLTIQVKEFGDAGQYTCHKGGEVLSHSLLLLHKKEDGIWSTDILKDQKEPKNKTFLRCEAKNYSGRFTCWWLTTISTDLTFSVKSSRGSSDPQGVTCGAATLSAERVRGDNKEYEYSVECQEDSACPAAEESLPIEVMVDAVHKLKYENYTSSFFIRDIIKPDPPKNLQLKPLKNSRQVEVSWEYPDTWSTPHSYFSLTFCVQVQGKHKEKKDRVFTDKTSATVICRKNASISVRAQDRYYSSSWSEWASVPCSGGGGSGGGGSGGGGSGGGGSNLPVATPDPGMFPCLHHSQNLLRAVSNMLQKARQTLEFYPCTSEEIDHEDITKDKTSTVEACLPLELTKNESCLNSRETSFITNGSCLASRKTSFMMALCLSSIYEDLKMYQVEFKTMNAKLLMDPKRQIFLDQNMLAVIDELMQALNFNSETVPQKSSLEEPDFYKTKIKLCILLHAFRIRAVTIDRVMSYLNAS", "light": "B1 light"}, "B5": {"name": "Bivalent IL-12 fusion protein FP43 (other)", "heavy": "QVQLVQSGAEVKKPGSSVKVSCKASGGTFSDYYLHWSRQAPGQGLEWMGWIDPENGDTEYAPKFQGRVTITADESTSTAYMELSSLRSEDTAVYYCARNKELRYIDVWGQGTLVTVSSTSGSGRSATPRGASTKGPSVFPLAPCSKSTSGGTAALGCLVKDYFPEPVTVSWNSGALTSGVHTFPAVLQSSGLYSLSSVVTVPSSSLGTQTYICNVNHKPSNTKVDKRVGGGGSGGGGS[human IgG1 Fc with changes cut from this listing]GSGGSGGSGGSGGSGGSIWELKKDVYVVELDWTPDAPGEMVVLTCDTPEEDGITWTLDQSSEVLGSGKTLTIQVKEFGDAGQYTCHKGGEVLSHSLLLLHKKEDGIWSTDILKDQKEPKNKTFLRCEAKNYSGRFTCWWLTTISTDLTFSVKSSRGSSDPQGVTCGAATLSAERVRGDNKEYEYSVECQEDSACPAAEESLPIEVMVDAVHKLKYENYTSSFFIRDIIKPDPPKNLQLKPLKNSRQVEVSWEYPDTWSTPHSYFSLTFCVQVQGKHKEKKDRVFTDKTSATVICRKNASISVRAQDRYYSSSWSEWASVPCSGGGGSGGGGSGGGGSGGGGSNLPVATPDPGMFPCLHHSQNLLRAVSNMLQKARQTLEFYPCTSEEIDHEDITKDKTSTVEACLPLELTKNESCLNSRETSFITNGSCLASRKTSFMMALCLSSIYEDLKMYQVEFKTMNAKLLMDPKRQIFLDQNMLAVIDELMQALNFNSETVPQKSSLEEPDFYKTKIKLCILLHAFRIRAVTIDRVMSYLNAS", "light": "B1 light"}, "B6": {"name": "Bivalent IL-12 fusion protein FP42 (other)", "heavy": "QVQLVQSGAEVKKPGSSVKVSCKASGGTFSDYYLHWSRQAPGQGLEWMGWIDPENGDTEYAPKFQGRVTITADESTSTAYMELSSLRSEDTAVYYCARNKELRYIDVWGQGTLVTVSSTSGSGRSATPRGASTKGPSVFPLAPCSKSTSGGTAALGCLVKDYFPEPVTVSWNSGALTSGVHTFPAVLQSSGLYSLSSVVTVPSSSLGTQTYICNVNHKPSNTKVDKRVGGGGSGGGGS[human IgG1 Fc with changes cut from this listing]GSGGSGGSGGSGGSGGSIWELKKDVYVVELDWSPDAPGEMVVLTCDTPEEDGITWTLDQSSEVLGSGKTLTIQVKEFGDAGQYTCHKGGEVLSHSLLLLHKKEDGIWSTDILKDQKEPKNKTFLRCEAKNYSGRFTCWWLTTISTDLTFSVKSSRGSSDPQGVTCGAATLSAERVRGDNKEYEYSVECQEDSACPAAEESLPIEVMVDAVHKLKYENYTSSFFIRDIIKPDPPKNLQLKPLKNSRQVEVSWEYPDTWSTPHSYFSLTFCVQVQGKHKEKKDRVFTDKTSATVICRKNASISVRAQDRYYSSSWSEWASVPCSGGGGSGGGGSGGGGSGGGGSNLPVATPDPGMFPCLHHSQNLLRAVSNMLQKARQTLEFYPCTSEEIDHEDITKDKTSTVEACLPLELTKNESCLNSRETSFITNGSCLASRKTSFMMALCLSSIYEDLKMYQVEFKTMNAKLLMDPKRQIFLDQNMLAVIDELMQALNFNSETVPQKSSLEEPDFYKTKIKLCILLHAFRIRAVTIDRVMSYLNAS", "light": "B1 light"}, "B7": {"name": "Bivalent IL-12 fusion protein FP41 (other)", "heavy": "QVQLVQSGAEVKKPGSSVKVSCKASGGTFSDYYLHWSRQAPGQGLEWMGWIDPENGDTEYAPKFQGRVTITADESTSTAYMELSSLRSEDTAVYYCARNKELRYIDVWGQGTLVTVSSTSGSGRSATPRGASTKGPSVFPLAPCSKSTSGGTAALGCLVKDYFPEPVTVSWNSGALTSGVHTFPAVLQSSGLYSLSSVVTVPSSSLGTQTYICNVNHKPSNTKVDKRVGGGGSGGGGS[human IgG1 Fc with changes cut from this listing]GSGGSGGSGGSGGSGGSIWELKKDVYVVELDWRPDAPGEMVVLTCDTPEEDGITWTLDQSSEVLGSGKTLTIQVKEFGDAGQYTCHKGGEVLSHSLLLLHKKEDGIWSTDILKDQKEPKNKTFLRCEAKNYSGRFTCWWLTTISTDLTFSVKSSRGSSDPQGVTCGAATLSAERVRGDNKEYEYSVECQEDSACPAAEESLPIEVMVDAVHKLKYENYTSSFFIRDIIKPDPPKNLQLKPLKNSRQVEVSWEYPDTWSTPHSYFSLTFCVQVQGKHKEKKDRVFTDKTSATVICRKNASISVRAQDRYYSSSWSEWASVPCSGGGGSGGGGSGGGGSGGGGSNLPVATPDPGMFPCLHHSQNLLRAVSNMLQKARQTLEFYPCTSEEIDHEDITKDKTSTVEACLPLELTKNESCLNSRETSFITNGSCLASRKTSFMMALCLSSIYEDLKMYQVEFKTMNAKLLMDPKRQIFLDQNMLAVIDELMQALNFNSETVPQKSSLEEPDFYKTKIKLCILLHAFRIRAVTIDRVMSYLNAS", "light": "B1 light"}}, "note": "Positions count from the first letter of the chain named.", "data": [{"target": "Human IL-12 receptor (human IL-12Rb1 and IL-12Rb2) (human, UniProt P42701 24-662; Q99665 24-862)", "assay": "cell-based or functional assay", "units": {"Fold change (window), IL-12 luciferase assay": "fold"}, "values": [{"binder": "B1", "Fold change (window), IL-12 luciferase assay": 47.4}, {"binder": "B2", "Fold change (window), IL-12 luciferase assay": 498}, {"binder": "B3", "Fold change (window), IL-12 luciferase assay": 42.1}, {"binder": "B4", "Fold change (window), IL-12 luciferase assay": 172}, {"binder": "B5", "Fold change (window), IL-12 luciferase assay": 41.9}, {"binder": "B6", "Fold change (window), IL-12 luciferase assay": 44}, {"binder": "B7", "Fold change (window), IL-12 luciferase assay": 25.6}]}]}
